Laboratory results reported in the supplement of paper PMC8728848.
This is one part of the list.

Columns and labels:
Assay in all cases: glycan array binding signal (z-score within array); higher = stronger binding
Conditions in all cases: glycan notation: IUPAC condensed, linker removed
[1] = biological target: Glc(a1-6)Glc(a1-6)Glc(a1-6)Glc(a1-6)Glc(a1-6)Glc(a1-6)Glc(a1-6)Glc(a1-6)Glc(a1-6)Glc(a1-6)Glc
Summary of the method: (§1)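 The binding signal is a Z-score computed within each array. Data were drawn from 3228 arrays in the Consortium for Functional Glycomics database, restricted to those with a known protein sequence. Scores were averaged over arrays of the same protein sequence at different concentrations or buffers, and over linkers, and negative values can be taken as non-binding.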

[2] = biological target: Glc(a1-6)Glc(a1-6)Glc(a1-6)Glc(a1-6)Glc(a1-6)Glc(a1-6)Glc(a1-6)Glc(a1-6)Glc(a1-6)Glc(a1-6)Glc(a1-6)Glc
Summary of the method: as §1

[3] = biological target: Glc(a1-6)Glc(a1-6)Glc(a1-6)Glc(a1-6)Glc(a1-6)Glc(a1-6)Glc(a1-6)Glc(a1-6)Glc(a1-6)Glc(a1-6)Glc(a1-6)Glc(a1-6)Glc
Summary of the method: as §1

Glc(b1-2)Glc = biological target: Glc(b1-2)Glc
Summary of the method: as §1

Glc(b1-3)Glc = biological target: Glc(b1-3)Glc
Summary of the method: as §1

Glc(b1-3)Glc(b1-3)Glc = biological target: Glc(b1-3)Glc(b1-3)Glc
Summary of the method: as §1

[4] = biological target: Glc(b1-3)Glc(b1-3)Glc(b1-3)Glc
Summary of the method: as §1

[5] = biological target: Glc(b1-3)Glc(b1-3)Glc(b1-3)Glc(b1-3)Glc
Summary of the method: as §1

[6] = biological target: Glc(b1-3)Glc(b1-3)Glc(b1-3)Glc(b1-3)Glc(b1-3)Glc
Summary of the method: as §1

[7] = biological target: Glc(b1-3)Glc(b1-3)Glc(b1-3)Glc(b1-3)Glc(b1-3)Glc(b1-3)Glc
Summary of the method: as §1

[8] = biological target: Glc(b1-3)Glc(b1-3)Glc(b1-3)Glc(b1-3)Glc(b1-3)Glc(b1-3)Glc(b1-3)Glc
Summary of the method: as §1

[9] = biological target: Glc(b1-3)Glc(b1-3)Glc(b1-3)Glc(b1-3)Glc(b1-3)Glc(b1-3)Glc(b1-3)Glc(b1-3)Glc
Summary of the method: as §1

[10] = biological target: Glc(b1-3)Glc(b1-3)Glc(b1-3)Glc(b1-3)Glc(b1-3)Glc(b1-3)Glc(b1-3)Glc(b1-3)Glc(b1-3)Glc
Summary of the method: as §1

[11] = biological target: Glc(b1-3)Glc(b1-3)Glc(b1-3)Glc(b1-3)Glc(b1-3)Glc(b1-3)Glc(b1-3)Glc(b1-3)Glc(b1-3)Glc(b1-3)Glc
Summary of the method: as §1

[12] = biological target: Glc(b1-3)Glc(b1-3)Glc(b1-3)Glc(b1-3)Glc(b1-3)Glc(b1-3)Glc(b1-3)Glc(b1-3)Glc(b1-3)Glc(b1-3)Glc(b1-3)Glc
Summary of the method: as §1

[13] = biological target: Glc(b1-3)Glc(b1-3)Glc(b1-3)Glc(b1-3)Glc(b1-3)Glc(b1-3)Glc(b1-3)Glc(b1-3)Glc(b1-3)Glc(b1-3)Glc(b1-3)Glc(b1-3)Glc
Summary of the method: as §1

Glc(b1-4)Glc = biological target: Glc(b1-4)Glc
Summary of the method: as §1

Glc(b1-4)Glc(b1-4)Glc = biological target: Glc(b1-4)Glc(b1-4)Glc
Summary of the method: as §1

[14] = biological target: Glc(b1-4)Glc(b1-4)Glc(b1-4)Glc
Summary of the method: as §1

[15] = biological target: Glc(b1-4)Glc(b1-4)Glc(b1-4)Glc(b1-4)Glc
Summary of the method: as §1

[16] = biological target: Glc(b1-4)Glc(b1-4)Glc(b1-4)Glc(b1-4)Glc(b1-4)Glc
Summary of the method: as §1

[17] = biological target: Glc(b1-4)Glc(b1-4)Glc(b1-4)Glc(b1-4)Glc(b1-4)Glc(b1-4)Glc(b1-4)Glc
Summary of the method: as §1

[18] = biological target: Glc(b1-4)Glc(b1-4)Glc(b1-4)Glc(b1-4)Glc(b1-4)Glc(b1-4)Glc(b1-4)Glc(b1-4)Glc
Summary of the method: as §1

[19] = biological target: Glc(b1-4)Glc(b1-4)Glc(b1-4)Glc(b1-4)Glc(b1-4)Glc(b1-4)Glc(b1-4)Glc(b1-4)Glc(b1-4)Glc
Summary of the method: as §1

[20] = biological target: Glc(b1-4)Glc(b1-4)Glc(b1-4)Glc(b1-4)Glc(b1-4)Glc(b1-4)Glc(b1-4)Glc(b1-4)Glc(b1-4)Glc(b1-4)Glc
Summary of the method: as §1

[21] = biological target: Glc(b1-4)Glc(b1-4)Glc(b1-4)Glc(b1-4)Glc(b1-4)Glc(b1-4)Glc(b1-4)Glc(b1-4)Glc(b1-4)Glc(b1-4)Glc(b1-4)Glc
Summary of the method: as §1

[22] = biological target: Glc(b1-4)Glc(b1-4)Glc(b1-4)Glc(b1-4)Glc(b1-4)Glc(b1-4)Glc(b1-4)Glc(b1-4)Glc(b1-4)Glc(b1-4)Glc(b1-4)Glc(b1-4)Glc
Summary of the method: as §1

Glc(b1-6)Glc = biological target: Glc(b1-6)Glc
Summary of the method: as §1

Glc(b1-6)Glc(b1-6)Glc = biological target: Glc(b1-6)Glc(b1-6)Glc
Summary of the method: as §1

[23] = biological target: Glc(b1-6)Glc(b1-6)Glc(b1-6)Glc
Summary of the method: as §1

[24] = biological target: Glc(b1-6)Glc(b1-6)Glc(b1-6)Glc(b1-6)Glc
Summary of the method: as §1

[25] = biological target: Glc(b1-6)Glc(b1-6)Glc(b1-6)Glc(b1-6)Glc(b1-6)Glc
Summary of the method: as §1

[26] = biological target: Glc(b1-6)Glc(b1-6)Glc(b1-6)Glc(b1-6)Glc(b1-6)Glc(b1-6)Glc
Summary of the method: as §1

[27] = biological target: Glc(b1-6)Glc(b1-6)Glc(b1-6)Glc(b1-6)Glc(b1-6)Glc(b1-6)Glc(b1-6)Glc
Summary of the method: as §1

[28] = biological target: Glc(b1-6)Glc(b1-6)Glc(b1-6)Glc(b1-6)Glc(b1-6)Glc(b1-6)Glc(b1-6)Glc(b1-6)Glc
Summary of the method: as §1

GlcA(b1-3)Gal = biological target: GlcA(b1-3)Gal
Summary of the method: as §1

[29] = biological target: GlcA(b1-3)Gal(b1-3)GlcNAc
Summary of the method: as §1

B1: PNA (Arachis hypogaea), P02872 (protein)
chain: MKPFCVFLTFFLLLAASSKKVDSAETVSFNFNSFSEGNPAINFQGDVTVLSNGNIQLTNLNKVNSVGRVLYAMPVRIWSSATGNVASFLTSFSFEMKDIKDYDPADGIIFFIAPEDTQIPAGSIGGGTLGVSDTKGAGHFVGVEFDTYSNSEYNDPPTDHVGIDVNSVDSVKTVPWNSVSGAVVKVTVIYDSSTKTLSVAVTNDNGDITTIAQVVDLKAKLPERVKFGFSASGSLGGRQIHLIRSWSFTSTLITTTRRSIDNNEKKIMNMASA
glycan array binding signal (z-score) [1]: -0.195 | glycan array binding signal (z-score) [2]: -0.195 | glycan array binding signal (z-score) [3]: -0.195 | glycan array binding signal (z-score) (Glc(b1-2)Glc): -0.195 | glycan array binding signal (z-score) (Glc(b1-3)Glc): -0.195 | glycan array binding signal (z-score) (Glc(b1-3)Glc(b1-3)Glc): -0.195 | glycan array binding signal (z-score) [4]: -0.195 | glycan array binding signal (z-score) [5]: -0.195 | glycan array binding signal (z-score) [6]: -0.195 | glycan array binding signal (z-score) [7]: -0.195 | glycan array binding signal (z-score) [8]: -0.195 | glycan array binding signal (z-score) [9]: -0.195 | glycan array binding signal (z-score) [10]: -0.195 | glycan array binding signal (z-score) [11]: -0.195 | glycan array binding signal (z-score) [12]: -0.195 | glycan array binding signal (z-score) [13]: -0.195 | glycan array binding signal (z-score) (Glc(b1-4)Glc): -0.166 | glycan array binding signal (z-score) (Glc(b1-4)Glc(b1-4)Glc): 0.142 | glycan array binding signal (z-score) [14]: 0.389 | glycan array binding signal (z-score) [15]: 0.275 | glycan array binding signal (z-score) [16]: -0.087 | glycan array binding signal (z-score) [17]: 0.304 | glycan array binding signal (z-score) [18]: 0.924 | glycan array binding signal (z-score) [19]: 1.4 | glycan array binding signal (z-score) [20]: 2.88 | glycan array binding signal (z-score) [21]: 1.98 | glycan array binding signal (z-score) [22]: 2.23 | glycan array binding signal (z-score) (Glc(b1-6)Glc): -0.173 | glycan array binding signal (z-score) (Glc(b1-6)Glc(b1-6)Glc): -0.195 | glycan array binding signal (z-score) [23]: -0.195 | glycan array binding signal (z-score) [24]: -0.195 | glycan array binding signal (z-score) [25]: -0.195 | glycan array binding signal (z-score) [26]: -0.195 | glycan array binding signal (z-score) [27]: -0.195 | glycan array binding signal (z-score) [28]: -0.195 | glycan array binding signal (z-score) (GlcA(b1-3)Gal): -0.167 | glycan array binding signal (z-score) [29]: -0.195
